# The campaign covered roughly 310,000 compounds. About 14,000 (4.5%) showed an effect of 50% or more. Effects have a minus sign here. The list shows a part of the results.
# Target: human ether-à-go-go-related gene (hERG) potassium channel (human, UniProt Q12809)
# Assay: primary screen, population patch clamp on CHO cells stably expressing hERG
# 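Note: peak tail current of the secondary pulse compared with the same well before compound.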
# Sequence of human ether-à-go-go-related gene (hERG) potassium channel (Q12809 whole entry, looked up): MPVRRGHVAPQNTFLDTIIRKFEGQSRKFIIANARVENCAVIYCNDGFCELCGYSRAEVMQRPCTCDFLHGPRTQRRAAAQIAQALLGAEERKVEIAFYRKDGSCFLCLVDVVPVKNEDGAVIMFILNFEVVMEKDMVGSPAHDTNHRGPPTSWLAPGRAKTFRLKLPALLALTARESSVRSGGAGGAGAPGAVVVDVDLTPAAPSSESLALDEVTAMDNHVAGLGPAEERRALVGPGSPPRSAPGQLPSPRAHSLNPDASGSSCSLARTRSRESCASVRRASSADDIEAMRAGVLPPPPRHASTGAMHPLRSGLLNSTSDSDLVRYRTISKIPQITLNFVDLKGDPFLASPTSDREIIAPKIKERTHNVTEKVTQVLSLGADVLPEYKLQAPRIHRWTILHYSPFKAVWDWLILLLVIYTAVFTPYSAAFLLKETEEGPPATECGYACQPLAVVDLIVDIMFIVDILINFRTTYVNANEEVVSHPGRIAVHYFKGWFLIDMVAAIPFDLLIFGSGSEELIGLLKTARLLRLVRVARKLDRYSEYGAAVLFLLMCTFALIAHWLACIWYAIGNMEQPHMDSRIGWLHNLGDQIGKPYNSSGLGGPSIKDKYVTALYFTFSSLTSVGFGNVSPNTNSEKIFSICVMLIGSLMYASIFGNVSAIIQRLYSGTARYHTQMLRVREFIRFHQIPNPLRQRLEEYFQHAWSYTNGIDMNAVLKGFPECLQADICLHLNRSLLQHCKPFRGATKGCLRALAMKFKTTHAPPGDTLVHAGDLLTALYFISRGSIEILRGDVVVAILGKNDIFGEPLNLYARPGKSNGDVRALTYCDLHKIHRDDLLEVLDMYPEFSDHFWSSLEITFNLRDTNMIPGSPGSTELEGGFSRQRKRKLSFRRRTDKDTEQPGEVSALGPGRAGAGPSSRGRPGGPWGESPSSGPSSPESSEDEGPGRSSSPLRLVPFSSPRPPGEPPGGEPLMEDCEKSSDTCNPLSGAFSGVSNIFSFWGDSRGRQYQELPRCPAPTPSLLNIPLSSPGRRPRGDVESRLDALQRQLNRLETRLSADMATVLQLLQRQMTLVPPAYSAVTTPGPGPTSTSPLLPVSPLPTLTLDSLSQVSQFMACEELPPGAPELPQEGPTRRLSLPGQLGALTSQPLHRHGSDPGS
row,SMILES,"hERG current change (%, negative = inhibition) at 10uM [%]"
1,Cc1cc(=O)oc2cc(NC(=O)CN3C(=O)NC(C)(c4ccccc4)C3=O)ccc12 (centres unmarked),11.3
2,Cc1ccc(C)n1-c1cccc(N)c1,-8.63
3,COc1ccc(CNC(=O)Cn2cccc2C(=O)c2ccccc2)cc1,-2.71
4,CCOc1cc(C2C(C#N)=C(N)OC(C)=C2C(C)=O)c(Br)c(Br)c1OC(C)C (centres unmarked),4.61
5,COc1ccc(S(=O)(=O)N(CCCN2CCOCC2)Cc2cccc(OC)c2OC)cc1,-12.5
6,CCC(O)(CC)C(=O)N=Nc1c(O)[nH]c2ccccc12,14.5
7,CC(=O)Nc1cccc(C(=O)OC(C)C(=O)NCc2ccc3c(c2)OCO3)c1 (centres unmarked),-2.69
8,O=C(N=C1SC2CS(=O)(=O)CC2N1c1ccc(F)c(Cl)c1)C1CC1 (centres unmarked),-2.29
9,CCOC(=O)CN1C(=O)c2ccccc2Sc2ncccc21,8.95
10,CN1CCCC(OC(=O)c2cccc(Cl)c2)C1.Cl (centres unmarked),-17.5
11,COc1ccc(-n2nc(C(=O)NCC(=O)Nc3cc(C)ccc3OC)c3ccccc3c2=O)c(OC)c1,10.6
12,COc1nc(Nc2nc3ccccc3c(=O)[nH]2)nc2ccc(C)cc12,5.71
13,COc1cccc(OCc2cc(C(=O)N(C)Cc3nc(C)cs3)no2)c1,-8.13
14,CC(NC(=O)CCc1c[nH]c2ccccc12)c1ccccc1 (centres unmarked),24.4
15,COC(=O)[C@@H](NC(=O)Nc1ccc(C(C)=O)cc1)C(C)C,6.95
16,CC1(C)Cc2ccccc2-c2nc(NN)[nH]c(=O)c21,12.8
17,S=C(NC1CCCCC1)NN1CCOCC1,7.4
18,CC(=O)c1cccc(S(=O)(=O)NCC2CCCCC2)c1,-42.5
19,O=C(CSc1ncn[nH]1)Nc1ccccc1-c1ccccc1,5.85
20,CCC(C)c1ccc(NC(=O)C/C(C)=N/NC(=O)c2cnccn2)cc1 (centres unmarked),-17.2
21,COc1cc(CN2CCN(C(=O)CC(C)C)CC2)c([N+](=O)[O-])cc1OC,8.77
22,O=C(CN1CCC(n2nnc3cc(F)ccc32)CC1)N1CCCc2ccccc21,-64.2
23,COc1ccc(-c2nc(CCNS(=O)(=O)c3ccc4c(c3)OCCO4)cs2)cc1,-29.4

row,SMILES,"hERG current change (%, negative = inhibition) at 10uM [%]"
1,Cl.Cn1nnnc1SCCNCc1cc(Cl)ccc1OCc1ccccc1,-42.7
2,O=C(Nc1ccc(-n2nncc2-c2ccco2)cc1)c1cccc(F)c1,-5.09
3,O=C(CSc1nnnn1C1CCCC1)Nc1ccc2c(c1)OCO2,0.109
4,c1ccc(CCN2CN(CCCN3CCOCC3)c3nc4ccccc4n3C2)cc1,-39.8
5,O=C(Nc1ccon1)Nc1ccc(F)cc1F,6.68
6,COc1ccc(/C=N/N2CCN(c3ccccc3)CC2)cc1Br,16
7,O=C(Nc1cc(Cl)cc(Cl)c1)C(c1ccccc1)N1CCCCC1 (centres unmarked),-0.326
8,NC(=O)Nc1ccc(Oc2ncc(C(F)(F)F)cc2Cl)cc1,15.2
9,CC(C)c1nc2ccccc2c2nnc(SCC(=O)NCc3ccco3)n12,-9.3
10,CCCN(CCC)CC(O)COc1ccc2c(c1)OCO2.Cl (centres unmarked),-28.8
11,CCCCCn1c(CN2CCN(C)CC2)nc2c1c(=O)n(C)c(=O)n2C,-33.1
12,O=C(Nc1cccc2nsnc12)c1ccc(-c2cccc(Cl)c2)o1,10.4
13,CCN1CCN(c2ccc(S(=O)(=O)N3CCCCC3)cc2NC(=O)/C=C/c2ccc(OC(F)F)cc2)CC1,-50.2
14,COc1c(C)cccc1C(=O)NCCCNC(=O)c1ccc(C)nc1,8.53
15,O=C(Nc1nnc(-c2ccco2)o1)c1ccc(N2C(=O)CCC2=O)cc1,9.62
16,O=C(Nc1cc(Cl)cc(Cl)c1)C1C2C=CC3(O2)C1C(=O)N(CCCN1CCOCC1)C3C(=O)NC1CCCCC1 (centres unmarked),-10.1
17,COC(=O)c1sc(S(=O)(=O)Nc2ccc(C)cc2)c(C(=O)OC)c1C,-0.0322
18,CN(C)CC/C=C1\c2ccccc2CSc2ccccc21.Cl,-22.6
19,Nc1nc(-c2cccc(F)c2)cs1,6.09
20,COc1ccc(S(=O)(=O)Cc2ccc(C(=O)NCc3cccnc3)o2)cc1,2.58
21,O=C(O)/C=C/c1cn(Cc2ccccc2)nc1-c1cccs1,19.7
22,CCc1ccc(NC(=O)CCNC(=O)Cn2cnc3ccccc3c2=O)cc1,8.41
23,CCOCC(=O)N1CCCC(C(=O)OCC)C1 (centres unmarked),1.56

row,SMILES,"hERG current change (%, negative = inhibition) at 10uM [%]"
1,COc1ccc(-n2c(Cc3cccn3C)nnc2SCC(=O)N2CCCc3ccccc32)cc1,-13.9
2,COC(=O)N[C@@H]1C[C@H]2[C@@H]3CC[C@H]4C[C@@H](OC)CC[C@]4(C)[C@H]3CC[C@@]12C,24.1
3,COc1ccc(-c2c3c(=O)n(C)c(=O)n(C)c3cn2Cc2cccnc2)cc1,4.55
4,Cc1ccc(-c2csc(N/N=C/C=C/c3ccccc3)n2)cc1,-4.21
5,COc1ccc(NC(=O)c2onc(C)c2Cl)cc1OC,-3.2
6,CC(=O)N1CCc2cc(S(=O)(=O)NCCC(=O)NC3CCCCCC3)ccc21,-23
7,O=C(Cn1c(=O)n(-c2ccccc2)c(=O)c2sccc21)NCc1ccccc1,28.7
8,O=C(CSc1ccc2nnc(-c3ccncc3)n2n1)Nc1ccccc1F,-7.78
9,O=C(O)c1cccc(-n2c(O)c(C=C3N=c4ccccc4=N3)sc2=S)c1,2.4
10,COc1cccc(C(=O)NCC(=O)N/N=C/c2cccnc2)c1,9.04
11,COc1ccc(NC(=O)COC(=O)C2CC(=O)N(c3ccc(OC(C)C)cc3)C2)cc1 (centres unmarked),9.25
12,CCCCCCSc1cc(-c2nc3ccc(Cl)cn3c2NCCCC)ccc1OC.O=C(O)C(F)(F)F,10.4
13,Cc1cc(OCC(=O)NCCN2CCOCC2)cc(C)c1Br,-7.05
14,CCCCC(=O)c1c(C)cc(C)[nH]c1=O,6.27
15,COc1ccc(Nc2nc(OC)nc(OC)n2)cc1,-0.803
16,CCCCOc1ccc(CNn2c(C)nc3ccccc3c2=O)cc1,14.6
17,CCOC(=O)c1c(NC(=O)C(Sc2ccccc2)c2ccccc2)sc(C(N)=O)c1C (centres unmarked),-3.17
18,CCCc1ccc(OCc2nc(-c3ccc(NC(=O)c4ccco4)cc3)no2)cc1,3.17
19,COc1ccc(CN2C(=NC(=O)c3ccccc3)SC3CS(=O)(=O)CC32)cc1OC (centres unmarked),5.14
20,CCCCCC(=O)NNC(=S)NC(C)=O,28.2
21,CS(=O)(=O)N1CCN=C1SCc1cccc(F)c1,19.2
22,O=C(CSc1nc2ccc([N+](=O)[O-])cc2[nH]1)NC1CCCCC1,-3.6
23,CCOc1ccc(NC(=O)CN(C)C(=O)c2ccc3[nH]c4c(c3c2)CC(C)CC4)cc1OCC (centres unmarked),16.7

row,SMILES,"hERG current change (%, negative = inhibition) at 10uM [%]"
1,C=CCc1c(C)nc(C)nc1N/N=C/c1ccc([N+](=O)[O-])cc1.Cl,-56.3
2,Cc1sc(NC(=S)NC(=O)c2ccccc2)c(C#N)c1C,0.195
3,CC(=O)c1c([O-])n(-c2cccc(Cl)c2)c(=O)[nH]c1=O.C[NH+](C)C,3.98
4,CCOC(=O)C1=C(C)N(CCCC(=O)O)C(=O)NC1c1ccccc1Cl (centres unmarked),-0.145
5,CCS(=O)(=O)N1Cc2ccccc2CC1C(=O)N(C)CC(=O)Nc1cccc(F)c1 (centres unmarked),-16.5
6,Br.CCn1c(O)c(N=NC2=NC(=O)CS2)c2ccccc21,2.88
7,COc1ccccc1-c1noc(CCC(=O)Nc2cc(C(F)(F)F)ccc2Cl)n1,-3.68
8,CCCCS(=O)(=O)N1CCN(S(=O)(=O)c2ccc(Cl)s2)CC1,-11.6
9,CCS(=O)(=O)N1Cc2ccccc2CC1C(=O)Nc1nc2ccc(F)cc2s1 (centres unmarked),3.17
10,NC(=O)CSc1nc2sc3c(c2c2ncnn12)CCCC3,-27.4
11,CCOC(=O)C1CSC(CC(=O)Nc2ccc(Cl)cc2)C(=O)N1 (centres unmarked),-14.9
12,Cn1c(=O)c(=O)n(C)c2cc(S(=O)(=O)NCCOc3ccccc3)ccc21,5.98
13,N#CC1=C(N)Oc2cc(N)ccc2C1c1ccsc1 (centres unmarked),9.79
14,O=C(CCN1C(=O)/C(=C\C=C\c2ccccc2)SC1=S)Nc1ccc(C(=O)O)cc1,14.7
15,CC(C)CNC(=O)/C=C/c1cccs1,-4.42
16,O=C(Nc1cc2ccccc2oc1=O)c1ccccc1,22.7
17,COCCNC(=O)CN(CCc1ccccc1)S(=O)(=O)c1ccc(OC)cc1,-22.4
18,CC1CCc2cccc3c(O)cc(=O)n1c23 (centres unmarked),5.84
19,COC(=O)c1[nH]c2ccc(C)cc2c1NS(=O)(=O)c1ccc(F)cc1,-5.62
20,CC(C)c1nc(CNC(=O)c2cc(COc3c(F)cccc3F)on2)cs1,-48.4
